Measurements reported in the supplement of paper PMC3334620.
The full ranking holds about 33,000 sequences; the median of “E-score (-0.5 to 0.5)” is about -0.032, and the highest 2% start at about 0.36. The list shows a part of the results.

biological target: T1, Sko1 (UniProt Q02100); experiment: PBM E-score (8-mer binding enrichment) (E-score (-0.5 to 0.5)); higher = stronger / more preferred TF binding; most listed sequences are background and not binding sites; conditions: protein concentration: 200 nM; construct: GST-full length
T1 sequence: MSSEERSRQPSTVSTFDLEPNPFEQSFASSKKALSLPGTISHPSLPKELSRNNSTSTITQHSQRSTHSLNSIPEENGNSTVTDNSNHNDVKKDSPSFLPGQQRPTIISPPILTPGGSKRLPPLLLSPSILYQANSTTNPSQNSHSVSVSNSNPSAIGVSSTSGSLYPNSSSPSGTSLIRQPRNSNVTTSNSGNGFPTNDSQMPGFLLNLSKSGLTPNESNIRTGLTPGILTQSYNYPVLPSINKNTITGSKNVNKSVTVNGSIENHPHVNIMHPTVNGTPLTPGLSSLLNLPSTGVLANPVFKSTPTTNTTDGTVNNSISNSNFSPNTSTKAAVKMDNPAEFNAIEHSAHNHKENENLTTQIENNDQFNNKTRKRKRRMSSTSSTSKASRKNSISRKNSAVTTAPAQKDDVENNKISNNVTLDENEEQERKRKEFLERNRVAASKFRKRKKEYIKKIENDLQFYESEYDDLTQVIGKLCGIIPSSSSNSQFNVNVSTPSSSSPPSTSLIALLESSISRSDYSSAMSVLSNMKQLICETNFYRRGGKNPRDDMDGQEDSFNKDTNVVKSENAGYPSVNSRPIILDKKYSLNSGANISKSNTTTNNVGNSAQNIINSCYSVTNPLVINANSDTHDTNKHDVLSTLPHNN
Method in brief: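 The E-score, a modified Wilcoxon-Mann-Whitney statistic, was computed by the Universal PBM Analysis Suite for every ungapped eight-base word pooled with its reverse complement. Scans behind it were normalised with masliner after bound GST-tagged yeast transcription factors were detected with fluorescent anti-GST. The proteins, at about 100-200 nM, had been applied to universal all-10-mer Agilent arrays made double-stranded by primer extension.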

Row | Sequence | PBM E-score
1 | TGGCAGAA | 0.037
2 | GATCCCCA | -0.0413
3 | CGAATCTA | 0.0743
4 | CAACTGGG | -0.215
5 | GAGCACAC | -0.00506
6 | ATCTCGCG | 0.17
7 | GTTGCATA | 0.148
8 | CTTCCAAG | -0.165
9 | AAGCCATG | -0.0873
10 | ATGTTAAC | 0.137
11 | AGTCTCAG | -0.264
12 | ATCTACTA | 0.148
13 | ACTGTTTA | 0.185
14 | AGCAGCTA | 0.0401
15 | GACACCGA | 0.00291
16 | AACATAAG | 0.155
17 | CACTCAGG | -0.167
18 | AACCCACC | -0.0866
19 | GATACTTA | 0.0322
20 | CCAATCGA | -0.0746
21 | AATCGCTA | -0.037
22 | CCTAAAGC | -0.106
23 | TGAACTCA | 0.129
24 | GCCCTGAA | -0.0589
25 | ATCCATAC | 0.148

Row | Sequence | PBM E-score
26 | GGGAGTAC | -0.0581
27 | ACCCAACG | -0.0412
28 | GGGTAGAA | -0.152
29 | ATGAAATA | 0.2
30 | ATATGGAC | 0.0409
31 | CCCATTCC | -0.392
32 | CTTCAACC | 0.0923
33 | GCAGGCCC | -0.343
34 | AAGATTAG | 0.062
35 | AAACTCCC | -0.0226
36 | GATGTCCC | -0.24
37 | ATTTTCGA | 0.215
38 | GCCTTAGC | -0.113
39 | GTGGTCTA | -0.124
40 | CCTAACCC | -0.241
41 | AACTAGAA | 0.0968
42 | GTCAGGAC | 0.147
43 | ACGATGCT | -0.118
44 | ACACCGTC | -0.0414
45 | AGCGCCCG | -0.093
46 | CTAGTAGA | 0.00136
47 | CACGGCCC | -0.0483
48 | CTTGGGAA | -0.0531
49 | AATAGAAC | 0.0147
50 | GCGTTGAA | -0.00274

Row | Sequence | PBM E-score
51 | CAGTTGAC | 0.00329
52 | CCGCGCCA | -0.0943
53 | AACCGCGT | 0.148
54 | CACGTTCG | -0.00664
55 | CTAGGAGA | -0.147
56 | ATACAAAC | 0.208
57 | CACAGGTC | -0.262
58 | ATAGGCCG | -0.228
59 | GTACTTAA | 0.15
60 | CCCCTAAG | -0.211
61 | CGTTGCCC | -0.0966
62 | GAATTGGA | 0.0218
63 | CATGAACC | 0.032
64 | CACGTAGC | 0.364
65 | TGACTCCA | -0.0825
66 | TTAATAAA | 0.286
67 | GTAATGGA | 0.402
68 | GACCATGC | 0.0552
69 | AAGACTTC | -0.0853
70 | CCGTCAGG | -0.0861
71 | ACTCCTGG | -0.326
72 | CCGATACG | 0.0786
73 | GGCGCCGA | -0.217
74 | AACGAACA | 0.0373
75 | AGCCTGCC | -0.095

Row | Sequence | PBM E-score
76 | TCCAAAAA | 0.00908
77 | CAACGTCA | 0.47
78 | GAGACCGA | -0.114
79 | AGTGACCG | -0.222
80 | GCCTAGGC | -0.4
81 | CCTGGCTC | -0.137
82 | ACGTCTAG | 0.356
83 | ACTCACGG | 0.0503
84 | CCGACGAA | 0.144
85 | ACCGTGGA | -0.265
86 | CAGTAAGA | 0.0474
87 | AGTGGTGC | -0.206
88 | AGGTGAGC | -0.248
89 | ACCCCCTG | -0.327
90 | GCCTGACC | -0.328
91 | GTCAACCA | 0.0809
92 | ATGACGAC | 0.466
93 | CGTCATTA | 0.487
94 | AACCAACA | 0.0388
95 | ATCATCCC | 0.0462
96 | CGTTTATC | 0.237
97 | ACTAAACA | 0.159
98 | ATAGTGGG | -0.124
99 | ACCACGCG | 0.107
100 | CGCGTGGA | -0.187

Row | Sequence | PBM E-score
101 | CGTGGCAG | 0.0975
102 | GTTAGGGA | -0.127
103 | GCGAAAGC | -0.126
104 | AGTACAGG | -0.0388
105 | ATAATGTC | 0.0617
106 | AGCATTTG | -0.0323
107 | AAAGAAGG | -0.0804
108 | CCGTAACA | 0.0942
109 | CGGCTGGC | -0.282
110 | ATGTAAGA | 0.25
111 | ATTTGTCA | 0.217
112 | ACACGACG | 0.251
113 | ACTTCCAA | -0.0994
114 | ATGCACAT | 0.155
115 | CCGGGGAG | -0.11
116 | ACCAGGGA | -0.172
117 | AATCAAGT | -0.00666
118 | ACTAGAAT | 0.111
119 | AACTATGT | 0.157
120 | CAAACCGC | -0.269
121 | ACGCGCAA | 0.209
122 | GTGACTCA | 0.0578
123 | ACCACCTG | -0.175
124 | GCAGTCAC | -0.0169
125 | CGATGCCA | -0.138

Row | Sequence | PBM E-score
126 | CACTCATA | 0.14
127 | AATTGTTG | 0.123
128 | GATAAAGA | 0.114
129 | ACAGATTG | -0.183
130 | AAGGGCTC | -0.343
131 | CAAAGTAA | -0.0412
132 | ACTTCAAA | 0.052
133 | ACCCTTCG | -0.0991
134 | AATTTGGA | 0.026
135 | ACCAATGC | -0.206
136 | CGATATAA | 0.157
137 | CCGGAAAA | -0.0524
138 | AGAATTGG | -0.013
139 | CCATCCGG | -0.228
140 | CTACACAG | -0.0733
141 | GTAGGCAC | -0.0535
142 | AACGATTC | 0.122
143 | ACTTTCGG | 0.0182
144 | CAAGTCGG | -0.242
145 | CCGGATAG | -0.045
146 | ACCAAAAG | 0.0263
147 | AATGCAGC | -0.179
148 | GGGGCATA | -0.202
149 | TCATAAGA | 0.191
150 | TACATCCA | 0.154

Row | Sequence | PBM E-score
151 | CGCGGTAC | 0.0928
152 | ACCGAGTG | -0.291
153 | TAATTTCA | 0.222
154 | AGGCTGCG | -0.126
155 | CCTGGGCC | -0.299
156 | CCAGTAAA | -0.0291
157 | GACTCTAA | -0.0874
158 | AGTATTCA | 0.23
159 | TCATCCCA | -0.0536
160 | CGACCGGA | -0.299
161 | GTGGAAGA | 0.0579
162 | TATTGAGA | 0.141
163 | CCTTTAAG | -0.162
164 | ACCGGCGG | -0.265
165 | ACTGGCGG | -0.115
166 | GTAAGTCA | 0.227
167 | CGGCCGAC | -0.15
168 | ACAGAGAA | -0.102
169 | CTAGGTGC | -0.138
170 | CGAAAAAG | 0.0536
171 | ACGCCCGA | -0.237
172 | ACTTCCCA | -0.0631
